# Measured values taken from PubChem BioAssay AID686979 (National Center for Advancing Translational Sciences (NCATS), 2013).
# Among all 420,000 compounds or so, about 50,000 (12%) were called active. Inconclusive results, whose numbers are uncertain, are shown with a selection of clear calls. Calls come from the whole dose curve; as a rule, active = well fitted inhibition curve with a large enough effect; inconclusive = small, poorly fitted or top-dose-only effect; inactive = flat fitted curve, though single readings scatter. Potencies of inconclusive entries are left out as doubtful fits.
# Assay: qHTS for Inhibitors of human tyrosyl-DNA phosphodiesterase 1 (TDP1): qHTS in cells in presence of CPT; note: nearly all actives have a fitted effect of over 55% in size
# Details: chicken DT40 Tdp1-/-;hTDP1 cells + 20 nM CPT, ATP luminescence, 48 h; activity change, negative = growth inhibition: at 46.2 µM (top of the series)
# How it was run: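 Chicken DT40 Tdp1-/- cells stably complemented with human TDP1 were seeded at 400 cells/well in medium containing 20 nM camptothecin, exposed to pin-transferred compounds, and grown at 37 °C for at least 48 hr. Viability was read as ATP luminescence.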
# % is set by controls: 0 for no effect and ±100 for the full control effect; potency is the fitted concentration of half-maximal effect; tags give direction and shape of the fitted curve.
SMILES,"activity change, negative = growth inhibition",Potency
CCOc1nc(-c2ccccc2)ncc1Oc1ccccc1,inactive: -19.4%,
CN1C(=O)Cc2cc(S(=O)(=O)CCC(=O)N3CCN(c4ccccc4F)CC3)ccc21,,"inconclusive [inhibitor, single point]"
CCOc1ccc(C(C(=O)NC2CCCC2)N(C(=O)c2snc(C(N)=O)c2N)c2cccc(O)c2)cc1 (centres undefined),,"inconclusive [inhibitor, partial curve]"
Cc1c(C(=O)NCC(C)(C)N2CCOCC2)cnn1-c1ncc2c(n1)-c1ccccc1CC2,,"inconclusive [inhibitor, single point]"
CN(C)CCCOc1ccc2c(c1)Sc1ccccc1CC2=O,,"inconclusive [inhibitor, single point]"
O=C1NC(=S)SC1=Cc1ccccc1Br,,"inconclusive [inhibitor, single point]"
CCOc1ccc(-n2c(=O)c3sccc3n(CC(=O)Nc3cccc(OC)c3)c2=O)cc1,,"inconclusive [inhibitor, single point]"
NC(=S)NNc1cccc(Cl)c1,,active: 16.4 µM
Cc1ccc(Cl)cc1N1CCN(C(=O)Cc2ccc(-n3c(=O)[nH]c4ccsc4c3=O)cc2)CC1,,"inconclusive [inhibitor, partial curve]"
Cc1ccc(OC(=O)c2cccc(S(=O)(=O)N(C)C)c2)c(-n2nc3ccccc3n2)c1,,"inconclusive [inhibitor, single point]"
CCc1nc2ccc(C(=O)N3CCN(C)CC3)cn2c1N(C)CCCc1ccccc1,,"inconclusive [inhibitor, single point]"
Cc1ccc(OCC(=O)N2c3ccccc3CC2C)c([N+](=O)[O-])n1 (centres undefined),,active: 16.4 µM
COc1ccc(NC(=O)COCc2cc(-c3cccs3)on2)cc1,,"inconclusive [inhibitor, single point]"
Cc1c(C(=O)N2CCN(S(=O)(=O)c3cccs3)CC2)oc2ccc(F)cc12,,"inconclusive [inhibitor, single point]"
CC(=O)Nc1cccc(OCCCNC(=O)c2ccc(C(C)(C)C)cc2)c1,,"inconclusive [inhibitor, single point]"
O=c1cc(CO)oc(C(Nc2ccccn2)c2ccccc2F)c1O (centres undefined),,"inconclusive [inhibitor, single point]"
COC(=O)N/N=C/c1cn(CCOc2ccc(OC)cc2)c2ccccc12,,"inconclusive [inhibitor, single point]"
COCCn1c(=O)c(-c2ccc(Cl)cc2)nc2cnc(N3CCNCC3)nc21,,active: 6.51 µM
CC(C)N1CCC1(C)C(=O)Nc1cccc(C#N)c1 (centres undefined),inactive: -0.98%,
CCC(=Nc1ccccc1O)C1=C(O)CC(c2ccccc2)CC1=O (centres undefined),,"inconclusive [inhibitor, single point]"
CCSc1ncc(Cl)c(C(=O)Nc2c(C(=O)Nc3ccc(Cl)cc3)oc3ccccc23)n1,inactive: 6.6%,
CC12CCC(=O)N1C(C(=O)Nc1cc(C(F)(F)F)ccc1N1CCCCC1)CS2 (centres undefined),,"inconclusive [inhibitor, single point]"
Cc1cccc(C(=O)NC2CCN(S(=O)(=O)c3ccccc3)CC2)c1,inactive: 11%,

SMILES,"activity change, negative = growth inhibition",Potency
O=C(c1ccc2c(c1)N(Cc1ccccc1)C(=O)c1ccccc1S2(=O)=O)N1CCN(c2ccccn2)CC1,,"inconclusive [inhibitor, single point]"
CCc1nnc(N/N=C/c2cc(Br)c(O)cc2O)n1N,,active: 4.11 µM
Cc1ccc(-c2ccc(/C=N/O)o2)cc1[N+](=O)[O-],inactive: -18.8%,
CCOc1ccc(OCC)c(NC(=O)CCc2c(C)nc3c(c2C)c(=O)n(C)c(=O)n3C)c1,,"inconclusive [inhibitor, full curve]"
CCCCN(C)C(=O)CCC(=O)Nc1ccc2nc(N3CCN(C)CC3)cc(C)c2c1,inactive: -4.75%,
CCOc1cc2[nH]c(=S)n(CCCC(=O)NCc3ccccn3)c(=O)c2cc1OCC,,"inconclusive [inhibitor, single point]"
CSCCC(c1nc2ccccc2[nH]1)n1c(-c2ccc3ncccc3c2)nc2ccccc21 (centres undefined),,"inconclusive [inhibitor, single point]"
CCOc1ccccc1CNC(=O)c1cc(-c2ccc(OC)cc2)nc2ccc(C(C)C)cc12,,active: 16.4 µM
CCC(=O)N1c2ccc(S(=O)(=O)NCCc3ccc(OC)c(OC)c3)cc2CC1C (centres undefined),,"inconclusive [inhibitor, single point]"
NS(=O)(=O)c1ccc(-c2cccc(/C=C3\SC(=O)NC3=O)c2)cc1,,"inconclusive [inhibitor, single point]"
O=C(c1nc2ccc(Cl)cn2c1CN1CCC[C@H]1CO)N1CCc2ccccc2C1,inactive: -23.6%,
CC(=O)N1CCN(c2ccc(Oc3ccc([N+](=O)[O-])c(C(F)(F)F)c3)cc2)CC1,,active: 11.6 µM
CC1Cc2ccccc2N1C(=O)CO/N=C/c1ccc(OC(F)F)cc1 (centres undefined),,"inconclusive [inhibitor, single point]"
CC(C)C[C@@H](CO)NC(=O)CC[C@H](NC(=O)OC(C)(C)C)C(=O)N(Cc1ccccc1)Cc1ccccc1,,"inconclusive [inhibitor, single point]"
Cc1cc(C)cc(C(=O)NCC(=O)OCC(=O)N2c3ccccc3NC(=O)C2(C)C)c1,inactive: -1.46%,
CC(C)Cc1nnc(NC(=O)CCC(=O)N2CCN(c3ccc(F)cc3)CC2)s1,inactive: -7.51%,
CCN1CCN(S(=O)(=O)c2ccc(Cl)c(C(=O)NC3CCCCC3)c2)CC1,,"inconclusive [inhibitor, partial curve]"
COc1ccc(CC(NC(C)=O)C(=O)NC2CCN(c3nc(C)cc(C)c3C#N)CC2)cc1OC (centres undefined),inactive: -16.4%,
CC(CCc1ccccc1)NC(=O)CCC1CCCC1 (centres undefined),inactive: 6.03%,
COc1ccc(OC)c(C2=NS(=O)(=O)N(C)C(C(=O)Nc3cccc(C(C)=O)c3)=C2)c1,,active: 20.6 µM
COc1ccccc1CN1CCC2(CC1)CCN(C(=O)c1ccco1)CC2,inactive: 18.4%,
Cc1ccc(O)c(NC(=O)c2cccc(S(=O)(=O)N3CCCCC3)c2)c1,,"inconclusive [inhibitor, single point]"
CSCCC(NC(=O)COc1ccccc1)C(=O)NCCOc1ccccc1 (centres undefined),inactive: -9.73%,

SMILES,"activity change, negative = growth inhibition",Potency
Cc1cc(C(=O)NCCc2ccccc2)ccc1[N+](=O)[O-],inactive: -9.54%,
COC(=O)[C@]12CCCCC=C1N(Cc1cccc3ccccc13)C(=O)[C@H](CC(=O)NCC13CC4CC(CC(C4)C1)C3)C2,,"inconclusive [inhibitor, single point]"
CCOC(=O)c1c(-c2ccco2)csc1NC(=O)CSc1nnc(N)s1,,"inconclusive [inhibitor, partial curve]"
CN1CCN(C2=Nc3c(Cl)cc(Cl)c4cccc2c34)CC1,,"inconclusive [inhibitor, single point]"
COC(=O)c1ccccc1NC(=O)Cn1c(=O)n(-c2ccc(Cl)cc2)c(=O)c2c(C)c(C)sc21,inactive: -28.8%,
CCOC(=O)C1(S(=O)(=O)c2ccccc2)CCN(Cc2ccc(Cl)cc2)CC1,,"inconclusive [inhibitor, single point]"
CN(C)c1ccc(/C=C2\C=Cc3ccccc32)cc1F,,"inconclusive [inhibitor, single point]"
CN1CCN(S(=O)(=O)c2cccc(C(=O)N(C)CC(=O)Nc3ccc(Cl)c(Cl)c3)c2)CC1,,"inconclusive [inhibitor, single point]"
CCN(CC)CCNC(=O)c1ccc(NC(=O)c2ccc(COc3ccccc3)cc2)cc1,,active: 23.1 µM
CCc1nc2ccc(C(=O)NCc3ccccc3OC)cn2c1N(CCC(C)C)CCN(C)C,,"inconclusive [inhibitor, single point]"
Cc1ccccc1NC(=O)c1cccc(N2C(=O)C3C4CCC(C4)C3C2=O)c1 (centres undefined),inactive: 5.79%,
CN1C(=O)CS(=O)c2ccc(C(=O)NCCC3=CCCCC3)cc21 (centres undefined),,"inconclusive [inhibitor, single point]"
CCCC(=O)N(c1ccc(C(=O)O)cc1)c1nc(-c2ccccc2)c(C)s1,inactive: -17%,
COc1ccc(S(=O)(=O)N(CCCN2CCCC2=O)Cc2cc3cc(C)c(C)cc3[nH]c2=O)cc1,,"inconclusive [inhibitor, single point]"
COc1ccc(/C=C/c2noc(-c3ccccc3O)n2)cc1OC,inactive: -13.4%,
Cc1c(C)c2ccc(OC(C)C(=O)NC3CC(C)(C)NC(C)(C)C3)cc2oc1=O (centres undefined),,"inconclusive [inhibitor, partial curve, poor fit]"
Cc1ccc(C(=O)COC(=O)C2CC(=O)N(c3nc(-c4ccccc4)cs3)C2)cc1 (centres undefined),inactive: -17%,
Fc1ccc(CN2CCSCC2)cc1Br,inactive: -8.7%,
CCC(=O)N(Cc1cc(=O)[nH]c2ccccc12)c1ccc(C)cc1,inactive: -29.4%,
CCOc1ccc(S(=O)(=O)NCCC(=O)N2CCN(Cc3ccccc3)CC2)cc1,,"inconclusive [inhibitor, partial curve, poor fit]"
Cc1ccc(OCCC(=O)OCC(=O)NC(=O)NC2CCCC2)cc1,,"inconclusive [inhibitor, partial curve]"
C/C(=N\NC(=O)C(=O)Nc1ccc(C)c(Cl)c1)c1ccncc1,,active: 1.64 µM
CCN(CC)C(=O)C1=C(C)N(Cc2ccc(C(C)(C)C)cc2)C(=O)C(CC(=O)NCCc2ccccn2)C1 (centres undefined),,"inconclusive [inhibitor, single point]"
